Values joined by “and” are separate entries in the source; they are usually repeats but may differ in a detail not shown here. Equal values may be shown once. Among all 340,000 compounds or so, about 12,000 (3.5%) were called active. This list was built around the results that the source calls inconclusive (neither active nor inactive); the mix of calls is not that of the screen. The call rests on the fitted dose curve; in most records, active means well fitted inhibition curve with a large enough effect; inconclusive means small, poorly fitted or top-dose-only effect, or another doubt; inactive means no such curve, though single readings can be large or run the other way. Where the call is inconclusive, the potency comes from a doubtful curve fit.
Experiment: qHTS Assay for Inhibitors of Hepatitis C Virus (HCV)
Conditions: Huh7.5.1 HCVcc-Cre (HCVcc is cell-culture hepatitis C virus) infection, luciferase reporter, 44 h; activity change, negative = inhibition: at 41.8 µM (top of the series)
Method in brief: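 Reporter virus HCVcc-Cre (~0.5 moi) infects cells exposed to compound; seeding density 1,000 cells/well with 4 h settling beforehand. Luminescence, 15 sec read, taken 44 h post-infection following a 15 min RT substrate incubation.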
On the % scale 0 is the no-effect control and ±100 the full control effect; potency means the concentration at half of the fitted maximal effect; tags describe the fitted curve by direction and shape.

| Compound | Potency | activity change, negative = inhibition |
| --- | --- | --- |
| CCc1nn(C(CC)C(=O)NCCCc2ccccc2)c(=O)c2cc3occc3n12 (stereo not drawn) | inconclusive: 7.08 µM [inhibitor, partial curve] | – |
| O=C(O)COc1ccc(-c2nccc(-c3ccccn3)n2)cc1 | – | inactive: 4.54% |
| Cc1cc(C)n2nc(-c3cccc(Br)c3)cc2n1 | inconclusive: 22.4 µM [inhibitor, single point] | – |
| CC(C)C1Oc2ccccc2N(CC(=O)NCCCN2C(C)CCCC2C)C1=O (stereo not drawn) | inconclusive: 31.6 µM [inhibitor, single point] | – |
| CCNC(=O)COc1ccc(-c2ccccc2)cc1 | – | inactive: -4.48% |
| O=C(/C=C/C(Cl)(Cl)Cl)Nc1ccc(Cl)cc1 | inconclusive: 14.1 µM [inhibitor, single point] | – |
| CC1(C)CC(=O)C(C2(O)C(=O)N(Cc3ccccc3)c3ccccc32)CO1 (stereo not drawn) | – | inactive: -0.322% |
| CC(C)c1nc(C(=O)N2CCCC(N3CCN(c4cccc(Cl)c4)CC3)C2)cs1 (stereo not drawn) | inconclusive: 2.51 µM [inhibitor, full curve] | – |
| Cc1ccc2nc(N/N=C/c3ccco3)cc(C)c2c1 | inconclusive: 14.1 µM [inhibitor, single point] | – |
| O=C(NNC(=O)c1cccc2ccccc12)c1ccc(F)cc1 | – | inactive: 4.52% |
| C=CCc1ccccc1OCC(O)CN1CCN(c2ccc(C)cc2)CC1 (stereo not drawn) | inconclusive: 14.1 µM [inhibitor, single point] | – |
| O=C(O)CSc1nnc(-c2cccc(S(=O)(=O)N3CCCCC3)c2)o1 | – | inactive: 5.95% |
| COCCOC(=O)c1[nH]c2c(c1C)C(=O)CC(c1cc(OC)ccc1OC)C2 (stereo not drawn) | inconclusive: 1.41 µM [inhibitor, full curve] | – |
| O=C(CCc1nnc2ccc(N3CCC4(CC3)OCCO4)nn12)NCc1ccc(F)cc1 | – | inactive: -12.9% |
| CCc1ccc2nc(N(CCCN(C)C)C(=O)c3ccc(S(=O)(=O)N4CCCC4)cc3)sc2c1 | inconclusive: 31.6 µM [inhibitor, single point] | – |
| C/C(N)=C(/C#N)C(=O)COC(=O)c1cc(C)n(-c2ccc(F)cc2)c1C | inconclusive: 14.1 µM [inhibitor, single point] and inconclusive: 31.6 µM [inhibitor, single point] | – |
| Cc1ccccc1C(=O)c1c[nH]c(C(=O)NCc2cccs2)c1 | inconclusive: 31.6 µM [inhibitor, single point] | – |
| Cc1cc(-c2csc(NC(=O)c3ccc(=O)n(C)n3)n2)c(C)n1CC1CCCO1 (stereo not drawn) | inconclusive: 2 µM [inhibitor, full curve, poor fit] | – |
| COc1cc2c(c3oc(-c4ccccc4)cc(=O)c13)C=CC(C)(C)O2 | active: 1 µM | – |
| OCC1CCCCN1C(=S)Nc1ccc(Cl)cc1Cl (stereo not drawn) | inconclusive: 22.4 µM [inhibitor, single point] | – |
| CC1(C)NC(=O)N(CC(=O)OCC(=O)Nc2cc(S(=O)(=O)N3CCCCCC3)ccc2Cl)C1=O | inconclusive: 1.58 µM [inhibitor, partial curve] | – |
| O=C(OCC1OC2OC3(CCCCC3)OC2C2OC3(CCCCC3)OC12)c1ccccc1 (stereo not drawn) | – | inactive: -2.75% |

| Compound | Potency | activity change, negative = inhibition |
| --- | --- | --- |
| Cc1cccc(NC(=O)C2SC(=Nc3c(C)cccc3C)C(C(=O)N3CCOCC3)=C2N)c1 (stereo not drawn) | inconclusive: 31.6 µM [inhibitor, single point] | – |
| O=C(c1ccc(CS(=O)Cc2ccc(Cl)cc2)o1)N1CCN(c2ccc(F)cc2)CC1 (stereo not drawn) | inconclusive: 31.6 µM [inhibitor, single point] | – |
| O=C(Nc1ccc(Nc2ccccc2)cc1)c1ccco1 | inconclusive: 28.2 µM [inhibitor, single point] | – |
| COC(=O)c1[nH]c2cc(C)ccc2c1NC(=O)CN1CCCc2ccccc21 | – | inactive: -20.8% |
| COc1ccc(-n2c(/C=C/c3ccc(O)c(O)c3)nc3ccccc3c2=O)cc1 | inconclusive: 22.4 µM [inhibitor, single point] | – |
| CC(C)(C)OC(=O)n1cc(/C=N/NC(=O)c2ccco2)c2ccccc21 | inconclusive: 2.24 µM [inhibitor, full curve, poor fit] | – |
| COc1ccccc1/C=N/NC(=O)CSc1ccc2ccccc2n1 | inconclusive: 31.6 µM [inhibitor, single point] | – |
| CCOC(=O)C1CCN(c2cc(=O)n(C3CCCCC3)c(=O)[nH]2)CC1 | – | inactive: 1.34% |
| Cc1cc(NC(=O)Nc2cccs2)no1 | inconclusive: 3.16 µM [inhibitor, single point] | – |
| CCCn1c(SCC(=O)Nc2cc(C)on2)n[nH]c1=O | – | inactive: 14.3% |
| Oc1[nH]c(=S)sc1C=C1N=c2ccccc2=N1 | – | inactive: 3.37% |
| Cc1cc(NC(=O)CN2C(=O)NC3(CCCCCC3)C2=O)ccc1Br | inconclusive: 11.2 µM [inhibitor, single point] | – |
| CN(Cc1ccccc1)C(=O)c1ccc(NC(=O)Cc2cccc(NC(=O)C3CCN(C(=O)C4CCCC4)CC3)c2)cc1 | – | inactive: -9.54% |
| NC(=O)CC(NC(=O)c1ccccc1)c1ccc(N2CCc3ccccc3C2)c([N+](=O)[O-])c1 (stereo not drawn) | inconclusive: 6.31 µM [inhibitor, single point] | – |
| COc1ccc(C2=NS(=O)(=O)N(C)C(C(=O)Nc3cc(OC)c(OC)c(OC)c3)=C2)cc1 | inconclusive: 7.94 µM [inhibitor, partial curve] | – |
| Cc1ccc(C)c(C(=O)CCC(=O)N2CCN(c3cccc(C(F)(F)F)c3)CC2)c1 | inconclusive: 31.6 µM [inhibitor, single point] | – |
| CC(=O)c1c(C)[nH]c(C(=O)CN2CCN(S(=O)(=O)c3ccccc3[N+](=O)[O-])CC2)c1C | inconclusive: 14.1 µM [inhibitor, single point] | – |
| Cc1oc(-c2ccccc2F)nc1CS(=O)(=O)CC(=O)N1CCCCCC1 | inactive | – |
| COc1cccc2c1C(=O)c1c(O)c3c(c(O)c1C2=O)C[C@@](O)(C(=O)CO)C[C@@H]3OC1CC(N)C(O)C(C)O1 (stereo partly drawn) | active: 1 µM | – |
| CC1CN(C(=O)c2ccccc2OCc2ccc(Cl)cc2Cl)CC(C)O1 (stereo not drawn) | active: 14.1 µM | – |
| COc1ccc(-c2cccc(NS(=O)(=O)c3cccc([N+](=O)[O-])c3)c2)nn1 | inconclusive: 31.6 µM [inhibitor, single point] | – |

Source: PubChem BioAssay AID651820 (National Center for Advancing Translational Sciences (NCATS), 2012)
